This data set has as its system H4 α-syn overexpressing cells. The following applies: higher concentrations or longer incubation periods.

With `O=C1CN(/N=C/c2ccc(-c3ccc([N+](=O)[O-])cc3)o2)C(O)=N1` [DANT, 1-[(E)-[5-(4-nitrophenyl)furan-2-yl]methylideneamino]imidazolidine-2,4-dione], the cell toxicity result is on record as “observed cell toxicity”.

These data come from patent publication US20230201183A1, “METHODS TO […] ENHANCE MULTIPLE […] PROTEOSTASIS […] TO TREAT NEURODEGENERATION AND STORAGE DISEASES” (Northwestern University, priority 2021, published 2023).
